Experimental data from PMC12136788.
The other results are listed elsewhere or left out.

T1: UNK ZnF1-3 (human, UniProt Q9C0B0 31-174)
T1 sequence: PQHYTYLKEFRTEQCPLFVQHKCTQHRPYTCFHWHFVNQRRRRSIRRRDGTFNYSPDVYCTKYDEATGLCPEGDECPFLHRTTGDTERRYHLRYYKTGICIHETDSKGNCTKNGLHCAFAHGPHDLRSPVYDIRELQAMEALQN

B1: chr18:32579733:32579734:+_ENSMUSG00000024381_ENSMUST00000025239|mus_hu|motif|central (ssRNA)
RNA: GGGAGUUCUACAGUCCGACGAUCCUUGUGGAAGUUUUCCUCCAGGCCCGCGAUGCUCUGGAACGUGUUGACGUAGAAACCGGCGCGGCUGUUCCACAGGGACGGCAGCUCCUCCUGCAGAUCCACAUUCAUCUCCUCAAACACCAACAGAGGAUUGAGCAUCA
B2: chr13:110848956:110848957:-_ENSMUSG00000021700_ENSMUST00000167824|mus_hu|motif|central (ssRNA)
RNA: GGGAGUUCUACAGUCCGACGAUCAGGUACCAACACCAAAGCUCUUGGAAGAAUCGAUUUGGAACAGUUCAGGUUUAUUCCGGAGGGUAUCUAGAGGAGUGAAAGUGGUCAGGUAAUGAGUAGCAAAGGAAAAUAAAUUCAUACCAACAGAGGAUUGAGCAUCA
B3: 130224625_130236081_933_CDS_ENSG00000148356_ENST00000300417|human|control|control (ssRNA)
RNA: GGGAGUUCUACAGUCCGACGAUCCUCUUUGCAGAGGAACUGCAAGAUGGCCGCAGUGCCGGCACCACACACCUCCCGCGGCGGGUAGACCAUGGCCGAGGCGUCAAGGCUCAGCAUCUCCAGGGUUCGAACGUGAGCCAGCAUCAACAGAGGAUUGAGCAUCA
B4: 24728237_24728357_11170_CDS_ENSMUSG00000032855_ENSMUST00000035565|mouse|control|control (ssRNA)
RNA: GGGAGUUCUACAGUCCGACGAUCUGGGGGCCGCACACGGGGCACACGCUCACUUACAGGGGUUACAGCUGGGCUCUCUACCAGAGUGUCAUCUUCAUCAGGGUGAAGCCGCUUGGCCACAAGGGAGAAGUAGAGGGCUUCCAGCAACAGAGGAUUGAGCAUCA
B5: chr17:64801638:64801639:+_ENSG00000154229_ENST00000413366|hu_mus|hu_hu_hu_mus_False|38_98 (ssRNA)
RNA: GGGAGUUCUACAGUCCGACGAUCUAUAUAUAUAUAUAUAUACACACACAUAUAUAGUAAAACCCUAGUUAAACGUGUAAAGUAGCCAUUCAUUUUUGAAAUUUUAUCUACAUUAAAAAAUUAAUAUAUCUGAUAGAGUGCCAGCAACAGAGGAUUGAGCAUCA
B6: chr3:123074248:123074249:-_ENSMUSG00000028114_ENSMUST00000029759|mus_mus|FALSE|FALSE (ssRNA)
RNA: GGGAGUUCUACAGUCCGACGAUCGAUAGUGCUAUCUCUCCCAAAGAGAUGAAGGCGUCUUCUACCAAGACAAAAAUGUUCUAUUAUAUGAAAAAUUUCUACUGGUUUUUCUAUAUUGCCAAUCUCAGGUUCUUCUGUGAUAAUCAACAGAGGAUUGAGCAUCA
B7: chr10:33190432:33190433:-_ENSG00000150093_ENST00000302278|hu_mus|hu_hu_hu_mus_True|88_108 (ssRNA)
RNA: GGGAGUUCUACAGUCCGACGAUCUACAUUUUCAAAACCUGCAUGUGAGUAAAACCAUGGCCACAGAGCCCCAAAACUACCCUACUGUGACUAAGAUGCUGCUGCUGUGAGCUUGGUGUUGCAAAAUCCGCCUGAGUAGGAUUCCAACAGAGGAUUGAGCAUCA
B8: 72054991_72055111_810_CDS_ENSG00000197555_ENST00000555818|human|control|control (ssRNA)
RNA: GGGAGUUCUACAGUCCGACGAUCGCUUCGCUGGCGUAUUCUGCGAAGAGCUUUUCUGGGGGAGCUGGGGUAGGCUUCAGGCAUGAGAAAUCUGGAGUCCAUGUUCUCCGACGGUCUUGUCUUGUUUUUCAGCGUGUUCUGUAUCAACAGAGGAUUGAGCAUCA
B9: chr1:63223577:63223578:+_ENSMUSG00000025967_ENSMUST00000129339|mus_mus|FALSE|FALSE (ssRNA)
RNA: GGGAGUUCUACAGUCCGACGAUCAAAGGUCAAGGUCCGUUCCUAGUCUCGGUCCUCCGCGUACCACUGCGACUUGGUAACUAAAGGGCCCACAGGUCGUCCGCCGGCCUUCCCUUGUCUUUGGAAGAAAAUUAAUAAAGGAGGCAACAGAGGAUUGAGCAUCA
B10: chr1:39494564:39494565:+_ENSG00000168653_ENST00000372967|hu_hu|hu_hu_hu_mus_True|38_78 (ssRNA)
RNA: GGGAGUUCUACAGUCCGACGAUCAUGCAUUCGCCUCAUCGUUUUGUACCGAAGCAAACACUCUACGAAGUCAUCGAACUCUAUCUUGCACUCCUUUUCUGCCCGAGUCCCACCGAUCCCGUGUGCACACUCUAUCCACUCUUUCAACAGAGGAUUGAGCAUCA
B11: chr19:8913615:8913616:-_ENSMUSG00000071658_ENSMUST00000096259|mus_hu|mus_mus_mus_hu_False|88_108 (ssRNA)
RNA: GGGAGUUCUACAGUCCGACGAUCAGGGGGGCACCAACUUCUGCCUGAGAUAGGUGCCCCACCCAGUAGGGAGUUGCAGCUGAAAGUAUCUGAUGCAGAAGCAGUGACUAUACGAAAGGAGGCCCCUGGGGAGGGCCAGGCCAGCAACAGAGGAUUGAGCAUCA
B12: chr14:54897011:54897012:-_ENSG00000100528_ENST00000216416|hu_hu|FALSE|FALSE (ssRNA)
RNA: GGGAGUUCUACAGUCCGACGAUCCACCAAAACAUAGAUCAUGCCAUAUAGGUAGUAAAAAAAUGCUAGAAGAUAAAAAGCUAAUUUGCACCAUCCUUCCUUCUGACAAUAUGCUAGAAUAUCUGCAUUCAUGAUGGUUGUAGGCAACAGAGGAUUGAGCAUCA
B13: chr8:74585381:74585382:-_ENSG00000040341_ENST00000355780|hu_hu|motif|central (ssRNA)
RNA: GGGAGUUCUACAGUCCGACGAUCAGGCACUGGGCAAUGAUACCUCUGAUUGUACAUGCCCCGAAAGUUGUAAUUAGCUCGGUAAUUUGGGAAUGGCUUUGGAUCUAAUGGCCUGUAGAUGGCAGGCUCUCCCCUUUUCAUAGCCAACAGAGGAUUGAGCAUCA
B14: chr8:80553714:80553715:+_ENSG00000104435_ENST00000220876|hu_hu|FALSE|FALSE (ssRNA)
RNA: GGGAGUUCUACAGUCCGACGAUCAGCCUCCAGUUUCUUCUGGAUCUCCUCCAGGGACAGGUCUUUCUUCUUUGGAGAAGCUAAAGUUCGUGGGGCUUCUGAGAUAGGAGAUGGUGGCUUCAAGAUCAGCUCAAAAGCCUGGCCCAACAGAGGAUUGAGCAUCA
B15: chr4:76721835:76721836:+_ENSG00000138768_ENST00000264904|hu_mus|hu_hu_hu_mus_True|78_78 (ssRNA)
RNA: GGGAGUUCUACAGUCCGACGAUCGUUUGGCUGGGGUUUCUGAGACGCUCUGGAAUAAACUCAUGUUUUGCUAAUAAAUCCUAGUUUCUCUAUGAAAUUCUCUUUGCCAAUCCUCUUCUCUAUUAGUUGCUUUAGUUUCUCUUUCAACAGAGGAUUGAGCAUCA
B16: chr9:53430067:53430068:-_ENSMUSG00000032030_ENSMUST00000166367|mus_hu|motif|central (ssRNA)
RNA: GGGAGUUCUACAGUCCGACGAUCGGGUGAGUUGACUUGAGGUUCAUACAACAAAACUUGCCGUUUGAGUUUUGGGAAAGCGGCGGAAGACCAUAAAGUCCUCCUAAGUUCAGCAUCAGGGAGUUCAGUUGCAAGCUUAAGAUUCAACAGAGGAUUGAGCAUCA
B17: 38023238_38029427_504_3pUTR_ENSG00000065882_ENST00000510573|human|control|control (ssRNA)
RNA: GGGAGUUCUACAGUCCGACGAUCGUUUUGGAAGAAUUCAUUCCCUCUAUCCUCUCACAGAGCUUGUGCAGGCUUUGCAGGGGGCAGCCCUCACACAGCUGGGCUGGCGCCUUAGCUGUCUGCUGCACUGCGGCCACCGUGAAGCAACAGAGGAUUGAGCAUCA
B18: chr17:37075478:37075479:+_ENSG00000002834_ENST00000318008|hu_hu|FALSE|FALSE (ssRNA)
RNA: GGGAGUUCUACAGUCCGACGAUCAAAGAGAGGUAGAGCCCAUCCCACUGGUCCCUACACAGCGGCAGAGUCCCCAUCGCCAUCCCAGGAACCAAGAAGUGGAUCCCACUCUGGGGAAUGUAGGGAGCCCCUGACCUGGGGUCCCAACAGAGGAUUGAGCAUCA
B19: chr14:62207507:62207508:+_ENSG00000100644_ENST00000337138|hu_hu|motif|central (ssRNA)
RNA: GGGAGUUCUACAGUCCGACGAUCUGACAACUGAUCGAAGGAACGUAACUGGAAGUCAUCAUCCAUUGGGAUAUAGGGAGCGGACAUCUCCAAGUCUAAAUCUGUGUCCUGAGUAGAAAAUGGGUUCUUUGCUUCUGUGUCUUCCAACAGAGGAUUGAGCAUCA
B20: chr1:94943820:94943821:+_ENSG00000117528_ENST00000370214|hu_hu|FALSE|FALSE (ssRNA)
RNA: GGGAGUUCUACAGUCCGACGAUCCGCUGGGCCCUGAGCUCCAAUUGCACUCGUUAACUUAAAGAUAUACAAAACUAUGUCUAAAAAUGGCUUACUAAGAUUUGAAUACAGAUCGACUACACUGUUACAAAAUUUUUCUACAUCCAACAGAGGAUUGAGCAUCA
B21: chr16:92112057:92112058:+_ENSMUSG00000039680_ENSMUST00000047429|mus_hu|motif|central (ssRNA)
RNA: GGGAGUUCUACAGUCCGACGAUCCCCUUCACAUUCUUUUAGUUCCUGGGUCAGAGGGUGUUUGACAAUAUUCCCUCGGAUCACAUCGGUAUCUCGAGACAAGUGCUCCACCAUGCUUUCAACAGCUGCGGUGGGUGCAUAAAACAACAGAGGAUUGAGCAUCA
B22: chr1:23374948:23374949:-_ENSMUSG00000026158_ENSMUST00000027343|mus_mus|FALSE|FALSE (ssRNA)
RNA: GGGAGUUCUACAGUCCGACGAUCCCUCAAAAUCUUAACACCUCACAAAUCGGUACAAGCUAAAGCUGGUGUAUUAUGUACCUAGAAUGAGGAAGUGUUUCUUGUCUUACUUACAGGGAUAUGAUUCACAAAUAAGUAUGUAUCCAACAGAGGAUUGAGCAUCA

target: T1, UNK ZnF1-3; test: nsRBNS (natural sequence RNA bind-n-seq); RBNS binding buffer (assumed for nsRBNS): 25 mM Tris pH 7.5, 150 mM KCl, 3 mM MgCl2, 0.01% Triton X-100, 500 ug/ml BSA, 20 U/ml SUPERase-In, 4 C; UNK is unkempt and MSI1 is Musashi-1; names of the RNAs are library labels; protein concentration not given here; high values mean tight binding

Binder | binding signal [enrichment R]
B1 | 0.504
B2 | 2.28
B3 | 1.2
B4 | 1.22
B5 | 2.38
B6 | 1.27
B7 | 1.12
B8 | 0.848
B9 | 0.807
B10 | 0.724
B11 | 1.28
B12 | 1.19
B13 | 0.869
B14 | 1.02
B15 | 0.509
B16 | 1.47
B17 | 0.266
B18 | 1.1
B19 | 1.09
B20 | 1.14
B21 | 0.461
B22 | 1.31
